In all, about 310,000 compounds went through this assay and about 14,000 (4.5%) showed an effect of 50% or more. Effects have a minus sign here. Some of the results follow.
Molecular target: human ether-à-go-go-related gene (hERG) potassium channel (human, UniProt Q12809)
Test: primary screen, population patch clamp on CHO cells stably expressing hERG
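Also: peak tail current of the secondary pulse compared with the same well before compound.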

human ether-à-go-go-related gene (hERG) potassium channel, sequence (Q12809 whole entry, looked up): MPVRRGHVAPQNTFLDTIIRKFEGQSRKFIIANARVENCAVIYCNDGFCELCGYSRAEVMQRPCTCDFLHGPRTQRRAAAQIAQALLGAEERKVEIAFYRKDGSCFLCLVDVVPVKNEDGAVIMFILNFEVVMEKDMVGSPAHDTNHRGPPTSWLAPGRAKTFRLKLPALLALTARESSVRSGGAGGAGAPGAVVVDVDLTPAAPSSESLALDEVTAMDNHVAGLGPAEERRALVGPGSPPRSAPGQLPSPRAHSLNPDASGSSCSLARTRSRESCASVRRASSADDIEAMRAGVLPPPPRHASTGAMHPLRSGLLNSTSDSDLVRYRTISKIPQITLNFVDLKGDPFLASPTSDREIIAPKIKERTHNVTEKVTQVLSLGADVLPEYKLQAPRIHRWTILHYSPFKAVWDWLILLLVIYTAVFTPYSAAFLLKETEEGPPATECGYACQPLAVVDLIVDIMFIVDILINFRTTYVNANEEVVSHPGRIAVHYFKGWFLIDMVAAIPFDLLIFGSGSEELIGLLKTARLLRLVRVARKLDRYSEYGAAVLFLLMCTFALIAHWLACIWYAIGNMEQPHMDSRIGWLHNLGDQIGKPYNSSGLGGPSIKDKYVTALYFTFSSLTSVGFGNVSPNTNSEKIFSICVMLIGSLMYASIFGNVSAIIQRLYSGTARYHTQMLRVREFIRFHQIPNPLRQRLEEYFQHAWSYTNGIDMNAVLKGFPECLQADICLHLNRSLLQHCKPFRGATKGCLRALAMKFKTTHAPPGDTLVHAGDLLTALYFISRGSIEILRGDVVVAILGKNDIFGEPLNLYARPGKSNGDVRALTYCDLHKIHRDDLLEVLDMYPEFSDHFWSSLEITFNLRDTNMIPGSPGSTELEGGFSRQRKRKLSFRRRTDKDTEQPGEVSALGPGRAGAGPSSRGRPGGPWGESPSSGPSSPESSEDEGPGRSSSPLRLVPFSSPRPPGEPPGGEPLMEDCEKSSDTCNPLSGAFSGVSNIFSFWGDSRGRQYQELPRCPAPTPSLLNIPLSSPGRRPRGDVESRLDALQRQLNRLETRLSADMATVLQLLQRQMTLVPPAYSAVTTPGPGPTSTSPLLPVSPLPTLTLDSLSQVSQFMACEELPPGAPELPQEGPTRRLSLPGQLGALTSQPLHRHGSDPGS

SMILES	hERG current change (%, negative = inhibition) at 10uM [%]
O=C(CSc1nnc2ccc(-c3ccc(F)cc3)nn12)N1CCCC1	-13.5
COc1ccccc1NC(=O)CSc1nnc(-c2ccoc2C)o1	4
CCCCn1nnnc1NCc1ccc(C)s1	9.11
CCc1nnc2c(N(C)S(=O)(=O)c3ccc(C)cc3)nc3ccccc3n12	0.622
CCN(CC)S(=O)(=O)c1ccc(NN=C(C#N)C#N)cc1	-14.9
COc1ccccc1CCc1nnc(CCC(=O)N(C)Cc2ccncc2C)o1	4.14
Cc1ccc(Cl)cc1NC(=O)C1COc2ccccc2O1 (stereo not drawn)	18
CC1Sc2ccc(S(=O)(=O)CCC(=O)NC3CCCCCC3)cc2NC1=O (stereo not drawn)	13
C=CCn1c(O)c(/C(C)=N/N2CCN(C)CC2)c(=O)[nH]c1=O	10.4
O=C(NC(=S)NCC1CCCO1)c1ccccc1 (stereo not drawn)	9.2
CCOc1ccc(-c2nc(CSc3nnc(C)s3)cs2)cc1OC	-8.03
Cl.c1ccc(CNc2ccc3c(c2)ncn3C2CCCCC2)nc1	-34.4
O=C(CCC(=O)Nc1cccc(C(F)(F)F)c1)NCC1CCCO1 (stereo not drawn)	11.1
O=C1NCCN(Cc2ccoc2)C1CC(=O)N(CCO)Cc1ccccc1 (stereo not drawn)	18
CCOC(=O)c1c(-c2cccs2)csc1NC(=O)CCCC(=O)O	-5.65
CC(=O)O[C@@H]1[C@H]2[C@@H](C[C@@H](C)[C@@H]3CCC(=O)[C@@]13C)OC(=O)[C@@H]2C	7.87
Cc1ccccc1OCc1nc(-c2ccc(-n3cccc3)cc2)no1	2.66
O=C(Nc1nccs1)c1ccccn1	-3.04
O=C(NCCS(=O)(=O)N1CCN(c2ccccc2)CC1)c1cccc(F)c1	7.52
CC(Cn1cncn1)NC(=O)c1cc(COc2cccc(C(F)(F)F)c2)on1 (stereo not drawn)	2.2
Cc1c(/N=C(\[O-])Nc2ccc(Br)cc2)sn[n+]1C	-14.3
O=C(/C=C/c1cccs1)Nc1sc2c(c1C(=O)O)CCCC2	28.5

SMILES	hERG current change (%, negative = inhibition) at 10uM [%]
COc1ccc(NC(=O)c2ccc(NC3=NC4CS(=O)(=O)CC4S3)cc2)cc1 (stereo not drawn)	6.58
Cc1cc(C)c(OCC(=O)OC(C)C(=O)NC2CC2)c(C)c1 (stereo not drawn)	20.9
O=C(NC(=S)Nc1ccccc1[N+](=O)[O-])c1ccccc1Cl	11.7
CCn1c(SCC(=O)Nc2ccc(OC)cc2)nc2c(c1=O)SCC2	0.605
Cc1c(Cl)cccc1NC(=S)NCC(O)c1ccccc1 (stereo not drawn)	4.18
COc1ccccc1OCCC(=O)NNC(=O)c1ccccc1F	10.3
COC(=O)c1nnn(-c2nonc2N)c1-c1cccs1	-10.7
CCOc1ccccc1NC(=O)C1CCCCN1S(=O)(=O)c1ccccc1 (stereo not drawn)	-3.03
CCCCc1cn([C@@H](CCCCN)C(=O)N2CCNCC2)nn1.Cl	18.8
CCN(CC(=O)NCCCN1CCOCC1)S(=O)(=O)c1ccc(F)cc1	15.7
COc1ccc(C2SCC(=O)Nc3c2c(=O)[nH]n3C2CCCCCC2)cc1OC (stereo not drawn)	-5.65
CCOc1ccccc1NC(=O)C1CCC(=O)N1S(=O)(=O)c1ccc(C)cc1 (stereo not drawn)	-0.512
CCC(C)(C)C1CCc2[nH]nc(C(=O)NC3CCCCC3)c2C1 (stereo not drawn)	9.13
O=C(Cn1cncn1)N/N=C/c1ccc(Cl)cc1	11.4
COc1ccc(C2C(C(C)=O)=C(Nc3ccccc3)CC(C)(O)C2C(C)=O)cc1OC (stereo not drawn)	-23.9
CCOc1ccc(N(CC(=O)NCCc2ccc(Cl)cc2)S(=O)(=O)c2c(C)[nH]c(=O)[nH]c2=O)cc1	50.2
COc1ccc(C(=O)N2CCN(c3ccc(C(C)=O)cc3F)CC2)cc1S(=O)(=O)NC1CC1	-37.5
CCCOc1ccc(NC2=CC(=O)CC(C)(C)C2)cc1	1.89
COc1ccc(C2CC(C(F)(F)F)n3ncc(C(=O)O)c3N2)cc1OC (stereo not drawn)	-8.97
CC1CCN(S(=O)(=O)c2ccc3c(c2)c(=O)c(C(=O)N2CCCCC2)cn3C)CC1	-14.7
CCc1cc(=O)oc2c(C)c(OC(C)C(=O)NC3CC(C)(C)NC(C)(C)C3)ccc12 (stereo not drawn)	10.5
O=C(c1ccc(S(=O)(=O)N2CCCCCC2)cc1)N1CCCC(C(F)(F)F)C1 (stereo not drawn)	-1.72

SMILES	hERG current change (%, negative = inhibition) at 10uM [%]
O=C1CC(c2ccc(F)cc2)Cc2nc(NCC3CCCO3)ncc21 (stereo not drawn)	-20.2
Cc1cccc(NC(=O)CNC(=O)CSc2nnc(C(F)(F)F)n2C)c1C	5.57
CCC(C)NC(=O)C1c2ccccc2C(=O)N1Cc1cc(OC)ccc1OC (stereo not drawn)	9.25
Cc1[nH]n(-c2ccccc2)c(=O)c1C(=O)c1ccc([N+](=O)[O-])cc1	5.73
C[N+]1(C)CCC(=C2c3ccccc3CC(=O)c3sccc32)CC1.[I-]	-4.62
Cc1ccc(NC(=O)CSc2ncn[nH]2)cc1S(=O)(=O)N1CCOCC1	13.4
CCOC(=O)c1ccoc1CSCC(=O)N1CCN(S(=O)(=O)c2ccc(C)cc2)CC1	-25
COc1cccc(CNc2ncc(Br)cc2Br)c1O	9.52
CCCCOCCCNCc1cccn1CCN1CCOCC1.O=C(O)C(=O)O	9.07
CC(C)(O)c1ccc2c(c1)CCC1C(C)(C(=O)O)CCCC21C (stereo not drawn)	4.17
O=C1CC(c2nc3ccccc3[nH]2)CN1c1ccccc1F (stereo not drawn)	-4.32
CS(=O)(=O)c1ccc(N2CCN(C3CC(=O)NC3=O)CC2)cc1 (stereo not drawn)	13.1
CC(C)NC(C(=O)Nc1cc(Cl)cc(Cl)c1)c1ccccc1 (stereo not drawn)	-2.09
CCC1(c2ccc(F)cc2)NC(=O)N(CC(=O)N2CC(=O)Nc3ccccc32)C1=O (stereo not drawn)	-5.52
CCCNC(=O)NNC(=O)c1cc(-c2ccc3c(c2)OCO3)nc2ccccc12	12.3
COc1ccccc1N1CCN(C(=O)c2ccc(N3CCCCS3(=O)=O)cc2)CC1	7.52
C=CCNCC(=O)Nc1sc2c(c1C(=O)Nc1ccc(OC)cc1OC)CCC2	10.4
C=CCN1C(=O)C2C(C(=O)NCc3ccccc3)C3(C)C=CC2(O3)C1C(=O)NC(C)(C)C (stereo not drawn)	19.5
COc1ccc(C2c3c(ccc4ccccc34)Oc3ncn4nc(Cc5ccccc5)nc4c32)cc1OC (stereo not drawn)	-7.49
COc1cc(/C=C2/SC(=S)N(CCC(=O)Nc3ccc(C(=O)O)cc3)C2=O)cc(OC)c1OC	25.1
CC1=CC(=O)c2c(O)ccc(O)c2C1=O	-42.6
COc1cc(OC)cc(C(=O)Nc2ncn[nH]2)c1	7.31

SMILES	hERG current change (%, negative = inhibition) at 10uM [%]
Cc1cc(C)n(CCCNC(=O)c2ccc(S(=O)(=O)NCc3ccco3)cc2)n1	-0.172
CCc1nnc(NC(=O)c2cc(-c3cccnc3)nc3ccccc23)s1	16.3
O=C(Cc1cccs1)N/N=C/c1ccc(OCc2ccccc2)cc1	4.2
O=C(COC(=O)c1cc(=O)[nH]c2ccccc12)Nc1nc(-c2cccc(Br)c2)cs1	-6.75
CCOc1ncccc1C(=O)OCC(=O)Nc1cccc(S(=O)(=O)N2CCCCCC2)c1	-38
O=C(C[C@H]1C(=O)N(C2CCCCC2)C[C@@H]1Cc1ccccc1)Nc1ccccc1	-27.4
O=C(N/N=C/c1ccc2ncccc2c1)c1cc(-c2cccs2)nc2ccccc12	14.4
O=C(CO/N=C/c1ccccc1Cl)N1CCCc2ccccc21	-5.34
Cn1ccnc1C(=O)Cc1ccc([N+](=O)[O-])cc1	-9.89
CN(C)Cc1c(O)ccc2occ(C(=O)c3ccc(F)cc3)c12	-69.6
O=C(CSc1nnc(Cc2ccccc2)o1)Nc1ccccc1	9.47
CCC1CCCCN1S(=O)(=O)c1ccc(NC(=O)c2nc(S(C)(=O)=O)ncc2Cl)cc1 (stereo not drawn)	13.5
Cc1ccnc(NC(=O)Cc2ccc([N+](=O)[O-])cc2)c1	-12.4
Cc1cc2nc(C3CCN(C(=S)NCCCOC(C)C)CC3)[nH]c2cc1C	13.7
COC(=O)c1sc(C(C)(C)C)cc1CS(=O)(=O)c1ccc(Cl)cc1	7.17
Cc1cc(S(=O)(=O)NC(C)C)ccc1OCC(=O)N1CCN(Cc2ccc3c(c2)OCO3)CC1	-27.6
Cc1ccc(C#N)c(SCCN2CCCCC2)n1	-19.8
O=C(CN1c2ccccc2Sc2ccccc21)N/N=C/c1ccc(Cl)cc1Cl	25
CCC1CCCCN1CCCNC(=O)CN1C(=O)COc2ccc(S(=O)(=O)N3CCC(C)CC3)cc21 (stereo not drawn)	-41.4
COc1cc(C2=NOC(C(=O)N3CCN(c4ccc(F)cc4)CC3)C2)cc(OC)c1OC (stereo not drawn)	-43.6
Cc1ccc(S(=O)(=O)N2CCC(=O)N(C(COCc3cccc(Cl)c3)Cc3ccccc3)CC2)cc1 (stereo not drawn)	7.67

— article PMC4336329 (PLoS ONE, 2015)
